Laboratory results reported in article PMC4336329 (PLoS ONE, 2015).
In all, about 310,000 compounds went through this assay and about 2,200 (0.71%) showed an effect of 50% or more. The effect is printed as a negative number. This is one part of the list.

What follows are compounds tested against human ether-à-go-go-related gene (hERG) potassium channel (human, UniProt Q12809) (assay: primary screen, population patch clamp on CHO cells stably expressing hERG).
human ether-à-go-go-related gene (hERG) potassium channel, sequence (Q12809 whole entry, looked up): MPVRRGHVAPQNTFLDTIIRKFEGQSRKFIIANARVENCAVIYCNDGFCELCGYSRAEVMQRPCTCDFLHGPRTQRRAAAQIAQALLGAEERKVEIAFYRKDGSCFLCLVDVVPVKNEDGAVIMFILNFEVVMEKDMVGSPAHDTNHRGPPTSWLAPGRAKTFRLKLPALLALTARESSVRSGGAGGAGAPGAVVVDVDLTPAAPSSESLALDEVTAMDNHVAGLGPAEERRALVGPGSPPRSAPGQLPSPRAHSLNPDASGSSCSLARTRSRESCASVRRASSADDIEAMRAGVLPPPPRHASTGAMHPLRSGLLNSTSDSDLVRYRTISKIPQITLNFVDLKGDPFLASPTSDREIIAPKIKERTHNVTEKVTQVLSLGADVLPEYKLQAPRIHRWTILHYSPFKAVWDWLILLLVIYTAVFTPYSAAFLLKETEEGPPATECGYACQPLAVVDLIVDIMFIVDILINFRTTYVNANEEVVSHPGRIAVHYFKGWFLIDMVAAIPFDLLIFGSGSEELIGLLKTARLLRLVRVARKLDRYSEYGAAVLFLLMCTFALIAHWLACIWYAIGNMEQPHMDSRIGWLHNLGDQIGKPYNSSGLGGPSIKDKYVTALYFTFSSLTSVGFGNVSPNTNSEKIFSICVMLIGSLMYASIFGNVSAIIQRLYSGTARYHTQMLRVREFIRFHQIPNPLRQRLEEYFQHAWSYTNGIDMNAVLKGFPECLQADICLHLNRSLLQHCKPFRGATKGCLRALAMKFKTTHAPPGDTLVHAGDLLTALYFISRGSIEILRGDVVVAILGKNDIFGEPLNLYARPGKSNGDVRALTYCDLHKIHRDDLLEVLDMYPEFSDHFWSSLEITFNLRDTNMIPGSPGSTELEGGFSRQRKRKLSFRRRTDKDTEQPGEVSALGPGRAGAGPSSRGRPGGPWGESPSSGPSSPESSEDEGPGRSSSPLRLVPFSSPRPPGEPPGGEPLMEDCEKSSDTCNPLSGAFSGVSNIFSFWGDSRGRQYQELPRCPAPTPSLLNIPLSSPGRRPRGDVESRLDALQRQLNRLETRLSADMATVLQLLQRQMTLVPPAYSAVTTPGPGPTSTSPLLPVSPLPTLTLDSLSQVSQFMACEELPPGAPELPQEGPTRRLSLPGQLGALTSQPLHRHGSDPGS

Structure (SMILES) | hERG current change (%, negative = inhibition) at 1uM
COc1ccc(Cl)cc1-c1nc(SCC(=O)NCCN2C(=O)CSC2=O)n[nH]1 | 10.1%
Cc1noc(C)c1C(=O)NCCc1ccc(S(N)(=O)=O)cc1 | -9.22%
COc1ccc(S(=O)(=O)NCCCN2CCCC2=O)cc1OC | 0.602%
C=CCN1C(=O)/C(=C\c2ccc(N3CCOCC3)o2)C(=O)NC1=S | 5.44%
CCOC(=O)C1CCCN(c2c(NCCN3CCCCC3C)c(=O)c2=O)C1 (centres unmarked) | 10.8%
O=C1Nc2ccc([N+](=O)[O-])cc2OC1CCN1CCCC1 (centres unmarked) | 13.1%
c1ccc(N2CCN(c3nnc(Cc4cccnc4)c4ccccc34)CC2)nc1 | -4.9%
CCN(CC)c1ccc(/C=C2\SC(N)=NC2=O)cc1 | 6.17%
O=C(C(=O)N1CCN(c2ccc(F)cc2)CC1)c1c[nH]c2ccccc12 | 2.91%
CCC(C(=O)Nc1c2c(nn1C(C)(C)C)CS(=O)(=O)C2)c1ccccc1 (centres unmarked) | -13.7%
COc1ccc(OC)c(CN2C(=O)c3ccccc3C2C(=O)NCc2cccnc2)c1 (centres unmarked) | 13%
Cc1sc2ncnc(NCC(c3ccco3)N(C)C)c2c1C.O=C(O)C(=O)O (centres unmarked) | 4.18%
CCCC(C(=O)NC1CCCC1)N(Cc1ccccc1)C(=O)c1snc(C(N)=O)c1N (centres unmarked) | 11.5%
Cc1cc(Oc2ccc(C(F)(F)F)cc2[N+](=O)[O-])c2c3c(c(=O)oc2c1)CCCC3 | 13.1%
CC(=O)Nc1cccc(NC(=O)C2CCCN2C(=O)Nc2cccc(F)c2)c1 (centres unmarked) | 6.31%
CCOC(=O)c1ccc(N2Cc3ccccc3C2)cc1O | 8.1%
OCCC1CN(Cc2ccccn2)CCN1C1CCCC1 (centres unmarked) | 18.3%
Cc1c(Cl)cccc1NC(=S)NNc1ncc(C(F)(F)F)cc1Cl | 4.45%
CCn1nc(C)c(CNC(=O)Nc2ccccc2C(=O)OC)c1C | 0.0515%
Cc1ccc(C(=O)Nc2nc(-c3ccccn3)cs2)cc1S(=O)(=O)N1CCOCC1 | 0.449%
O=C(N/N=C/c1cccc(Br)c1)C1CC(=O)N(c2ccccc2)C1 (centres unmarked) | 15.5%
COc1ccc(NC(=O)CSc2ccc(-c3ccco3)nn2)cc1 | 18.9%

Structure (SMILES) | hERG current change (%, negative = inhibition) at 1uM
COc1cccc(/C(C)=N/NC(=O)c2ccc(N(C)C)cc2)c1 | 12.5%
O=C(COC(=O)c1n[nH]c2ccccc12)NC(=O)NC1CCCCC1 | 9.17%
O=C(NC(=S)Nc1nc(-c2ccccc2)cs1)c1cncc(Br)c1 | 12.3%
CC1=NN(c2ccccc2)C(=O)C1C(=O)C(=O)Nc1ccc(F)cc1 (centres unmarked) | 17.3%
CCc1ccc(NC(=O)CC2C(=O)N(c3cccc(OC)c3)C(=O)N2CCOC)cc1 (centres unmarked) | 12.8%
CCOC(=O)c1sc(C)c2c(=O)n(Cc3ccc(Cl)cc3)c(C)nc12 | 3.44%
COC(=O)C[N+](C)(C)C/C=C\c1ccccc1.[Br-] | 23.5%
CCN1CCN(C(=O)c2ccc3c(=O)n(CCc4ccccc4)c(=O)[nH]c3c2)CC1 | 0.866%
Cc1cccnc1NC(=O)CCc1c[nH]c2ccccc12 | 7.74%
N#Cc1cccc(NC(=O)N2CCC(c3nc4c(nnn4Cc4cccc(Cl)c4)c(=O)[nH]3)CC2)c1 | 10.5%
S=C(NC1CCCCC1)NC1CC2CCC(C1)N2Cc1ccccc1 (centres unmarked) | 1.28%
O=C(NCc1ccccc1)C1CCN(S(=O)(=O)c2ccc(N3CCCC3=O)cc2)CC1 | 6.4%
CCC1(c2ccc(Cl)cc2)NC(=S)N(c2ccc(C)c(C)c2)N1 (centres unmarked) | 12.3%
CCOc1cc(/C=N/NC(=O)c2ccccc2OCc2ccc(F)cc2)ccc1O | 11.5%
Cn1c(C(=O)N2CCN(c3ccccn3)CC2)cc2ccccc21 | 11.5%
Oc1ccc(-c2nnc(Nc3cccc(O)c3)c3ccccc23)cc1 | 10.2%
CCOC(=O)N1CCN(C(=O)CSc2nc3ccccc3c(=O)n2-c2ccccc2)CC1 | -3.97%
CC(C)(C)n1nnnc1C(c1ccncc1)N1CCN(C2CCCCC2)CC1 (centres unmarked) | 10.1%
O=C(NCc1cccs1)C(=O)c1cn(CC(=O)N2CCOCC2)c2ccccc12 | 20.6%
CN(C(=O)c1ccc(Cl)c([N+](=O)[O-])c1)C1(C)CCS(=O)(=O)C1 (centres unmarked) | 5.16%
CC(C)CN(C(=O)CSc1ncnc2ccccc12)C1CCS(=O)(=O)C1 (centres unmarked) | 5.26%
COc1ccc(N2C(=O)C(F)(F)C2c2cccc(F)c2)cc1 (centres unmarked) | 13.1%

Structure (SMILES) | hERG current change (%, negative = inhibition) at 1uM
CCN(Cc1cc(OC)c(OC)c(OC)c1)C(=S)Nc1cccc(SC)c1 | 5.8%
Cc1ccccc1-n1c(C)nnc1SCC(=O)N1CCc2ccccc2C1 | -1.04%
COc1ccc(OCC(=O)NC2CC(C)(C)NC(C)(C)C2)cc1 | 14.8%
O=C(CSCc1ccc(Cl)cc1)Nc1cc([N+](=O)[O-])ccc1O | 21.7%
Cc1ccccc1OCCCn1c(=O)sc2ccccc21 | 15.7%
CCCCN(CCCC)S(=O)(=O)c1ccc(NC(=O)c2ccc([N+](=O)[O-])cc2Cl)cc1 | 17.5%
O=C(O)CCC(=O)NNc1nc2ccccc2nc1-c1ccccc1 | 3.77%
COc1ccc(CNC(=O)C2CCN(c3nnc(N4CCCC4=O)s3)CC2)cc1 | 1.91%
O=C(/C=C/c1ccccc1)NC(NC(=S)Nc1ccc(C(=O)O)cc1)C(Cl)(Cl)Cl (centres unmarked) | 9.18%
O=C(/C(=C(\[O-])c1ccccc1)[n+]1ccc2ccccc2c1)c1ccc(Cl)cc1 | 9.21%
O=C(CCC1CCCN(C(=O)C2(c3ccccc3)CC2)C1)N1CCN(c2ccccn2)CC1 (centres unmarked) | 7.52%
CCOc1ccccc1/C=C(/NC(=O)c1ccccc1)C(=O)N1CCCCC1 | -24.7%
CCCNC(=O)c1ccccc1NC(=O)CSCc1ccc(OC)cc1 | 24.5%
CCC1CCCCN1C(=O)Cn1c(=O)n(CCC(=O)NCc2ccco2)c(=O)c2sccc21 (centres unmarked) | 8.58%
Cc1ccc(CSCCNC(=O)/C=C/c2ccc(Cl)cc2)cc1 | 6.93%
Cc1ccc(NC(=O)[C@H](NC(=O)[C@@H]2Cc3ccccc3CN2)c2ccccc2)c(C)c1 | 3.4%
O=C(Nc1ccc2c(c1)OCCO2)N1CCN(Cc2ccccc2)CC1 | 10.4%
CC(=O)Nc1ccc(S(=O)(=O)NCCc2ccccn2)cc1 | 9.03%
COc1ccc2c(COC(=O)c3n[nH]c4ccccc34)cc(=O)oc2c1 | -0.848%
CCOc1ccc(NC(=O)CCNC(=O)c2ccc(Br)cc2)cc1 | 11.7%
CN1CCN(C(=O)c2ccc3c(c2)NC(=O)/C(=C/c2ccccc2)S3)CC1 | 12.9%
O=C(CNC(=O)C1CCCCC1)NC1=NCCS1 | 12.2%

Structure (SMILES) | hERG current change (%, negative = inhibition) at 1uM
CCCCC(=O)Nc1ccc(C(=O)NNC(=O)CCCOc2ccc(Cl)cc2Cl)cc1 | 6.1%
COC(=O)C(Cc1ccc(OC(=O)c2ccccc2C)cc1)N1Cc2ccccc2C1=O (centres unmarked) | 6.47%
Cc1ccc(-n2ncc3c2CC(C)(C)CC3NC(=O)CCCN2CCCC2=O)cc1 (centres unmarked) | 10.8%
CC1(C)Cc2[nH]c3ccccc3c2C(C)(C)N1.Cl | 8.42%
[Cl-].c1ccc(C[n+]2c(-c3ccccc3)csc2Nc2ccccc2)cc1 | 20.3%
COc1ccc(OC)c(CN2CCCC(CCC(=O)N(C)CCc3ccccn3)C2)c1 (centres unmarked) | 9.19%
O=C(C1CCCN(S(=O)(=O)c2ccc(Br)cc2)C1)N1CCOCC1 (centres unmarked) | 8.77%
CCN(CC(=O)NCc1cccs1)C(=O)c1cccc(S(=O)(=O)Nc2cccc(C)c2)c1 | 7.8%
Cc1ncc([N+](=O)[O-])n1CCOC(=O)c1ccc(Br)cc1 | -1.68%
Cc1ccc2c(c1)c1c(n2CC(O)CNC2CCCC2)CCCC1.O=C(O)C(=O)O (centres unmarked) | 8.68%
COc1cc(C)ccc1OCc1cc(C(=O)N2CCC(c3ccc(F)cc3)C2)no1 (centres unmarked) | 8.54%
N#CCCn1[nH]c(-c2ccccc2)cc1=O | 9.2%
COC(=O)[C@H](CC(C)C)NC(=O)NCCCc1ccccc1 | 9.37%
Cc1sc2nc(CN3CCOCC3)nc(NCCc3ccccc3)c2c1C | -13.5%
COc1nc(NS(=O)(=O)c2ccc(C)cc2)nc(C)c1Cl | 4.32%
COc1ccc(S(=O)(=O)Nc2cc(C(=O)NCCCN3CCOCC3)ccc2N2CCOCC2)cc1 | 23.7%
CCc1ccc(-c2cn3c(n2)SCC3)cc1 | 14.8%
COc1ccc(CCNC(=O)CSc2nc3[nH]ncc3c(=O)n2-c2cccc(C(F)(F)F)c2)cc1OC | 21.4%
N/C(CC(=O)NCCOc1ccccc1)=N\O | -5.86%
COc1cccc(C(=O)Nc2ccccc2C(=O)N2CCCC2)c1 | 1.14%
